# Test results published in the supplement of paper PMC7826260.
# Some of the results follow. The data describe in vitro nicking of single-stranded DNA by Rep domains (1 h at 37 °C, 3 µM enzyme); the outer parts of the 90-letter strands are left off. Uncut reads are compared with the no-enzyme pool on a log2 scale; uncut sequences lie near 0, cut ones below; no hit call is given. Because reads are shares of a total, they shift together, so uncut sequences can rise above 0 when many others are cut.
# Experiments:
# Experiment in all cases: uncleaved DNA left, log2 of reads against the no-enzyme library (log2 ratio); higher = less cleavage (more negative = more Rep cleavage of the k-mer); sequences stand for … in CTCGTCCG…ACCGGAGA
# [1] = test system: T1, Rep nickase domain of Muscovy duck circovirus
# T1 sequence (residues 1-111 of Rep, tag left off): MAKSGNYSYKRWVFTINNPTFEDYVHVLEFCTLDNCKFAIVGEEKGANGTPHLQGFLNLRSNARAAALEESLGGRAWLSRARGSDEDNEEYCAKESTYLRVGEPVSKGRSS
# Experimental: (§1)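 A pool of 90-nt single-stranded DNAs with seven random bases just before the constant AC of the nick site (name = the seven bases) was cut by 3 µM recombinant His6-SUMO-tagged Rep nickase domain (300 nM DNA, 50 mM HEPES pH 8.0, 50 mM NaCl, 1 mM MnCl2, 1 h, 37 °C, three replicates). Uncut DNA was amplified and sequenced.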
# [2] = test system: T2, Rep nickase domain of banana bunchy top virus
# T2 sequence (residues 1-94 of Rep, tag left off): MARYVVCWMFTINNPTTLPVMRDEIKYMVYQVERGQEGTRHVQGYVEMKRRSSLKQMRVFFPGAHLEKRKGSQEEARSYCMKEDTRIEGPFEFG
# Experimental: as §1
# [3] = test system: T3, Rep nickase domain of cabbage leaf curl virus
# T3 sequence (residues 1-116 of Rep, tag left off): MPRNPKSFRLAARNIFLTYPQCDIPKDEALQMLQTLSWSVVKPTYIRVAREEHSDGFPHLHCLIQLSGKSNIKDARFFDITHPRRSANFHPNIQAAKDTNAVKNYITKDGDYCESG
# Experimental: as §1
# [4] = test system: T4, Rep nickase domain of chickpea chlorotic dwarf virus
# T4 sequence (residues 1-124 of Rep, tag left off): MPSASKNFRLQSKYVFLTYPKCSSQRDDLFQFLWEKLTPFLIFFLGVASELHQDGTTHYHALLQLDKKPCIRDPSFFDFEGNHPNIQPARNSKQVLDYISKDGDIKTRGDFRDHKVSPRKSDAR
# Experimental: as §1
# [5] = test system: T5, Rep nickase domain of faba bean necrotic yellows virus
# T5 sequence (residues 1-98 of Rep, tag left off): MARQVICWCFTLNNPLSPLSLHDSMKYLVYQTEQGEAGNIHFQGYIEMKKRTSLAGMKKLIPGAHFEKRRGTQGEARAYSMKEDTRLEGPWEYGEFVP
# Experimental: as §1
# [6] = test system: T6, Rep nickase domain of maize striate mosaic virus
# T6 sequence (residues 1-117 of Rep, tag left off): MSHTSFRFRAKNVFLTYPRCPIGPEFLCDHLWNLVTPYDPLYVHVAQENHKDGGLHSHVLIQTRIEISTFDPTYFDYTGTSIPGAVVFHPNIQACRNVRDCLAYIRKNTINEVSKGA
# Experimental: as §1
# [7] = test system: T7, Rep nickase domain of porcine circovirus 2
# T7 sequence (residues 2-116 of Rep, tag left off): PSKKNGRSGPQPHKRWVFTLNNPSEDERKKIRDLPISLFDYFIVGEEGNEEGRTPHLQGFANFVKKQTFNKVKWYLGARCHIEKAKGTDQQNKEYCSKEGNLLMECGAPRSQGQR
# Experimental: as §1
# [8] = test system: T8, Rep nickase domain of tomato golden mosaic virus
# T8 sequence (residues 1-124 of Rep, tag left off): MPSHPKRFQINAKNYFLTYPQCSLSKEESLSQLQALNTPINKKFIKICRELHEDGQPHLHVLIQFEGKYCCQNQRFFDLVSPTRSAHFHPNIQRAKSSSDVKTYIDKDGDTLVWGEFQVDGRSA
# Experimental: as §1
# [9] = test system: T9, Rep nickase domain of tomato yellow leaf curl virus
# T9 sequence (residues 1-136 of Rep, tag left off): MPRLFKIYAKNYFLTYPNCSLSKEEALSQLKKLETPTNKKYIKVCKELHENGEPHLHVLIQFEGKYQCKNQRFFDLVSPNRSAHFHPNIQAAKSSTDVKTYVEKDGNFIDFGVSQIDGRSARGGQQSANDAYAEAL
# Experimental: as §1
# [10] = test system: T10, Rep nickase domain of wheat dwarf virus
# T10 sequence (residues 1-137 of Rep, tag left off): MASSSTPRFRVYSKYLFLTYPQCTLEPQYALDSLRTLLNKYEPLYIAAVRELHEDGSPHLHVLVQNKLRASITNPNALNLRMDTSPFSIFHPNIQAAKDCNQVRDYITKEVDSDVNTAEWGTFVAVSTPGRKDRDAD
# Experimental: as §1
Sequence,uncleaved DNA left (log2) [1],uncleaved DNA left (log2) [2],uncleaved DNA left (log2) [3],uncleaved DNA left (log2) [4],uncleaved DNA left (log2) [5],uncleaved DNA left (log2) [6],uncleaved DNA left (log2) [7],uncleaved DNA left (log2) [8],uncleaved DNA left (log2) [9],uncleaved DNA left (log2) [10]
GTACCGC,0.0394,0.00551,0.0938,0.175,0.0602,0.025,-0.0318,0.0107,0.0562,0.0376
TGATAAT,-3.58,-0.0612,-0.144,-1.76,-0.1,-0.0524,-3.52,-0.02,0.0898,-0.445
AAGGTCT,0.125,0.149,0.17,-0.0105,0.135,1.1,-0.389,0.136,0.0221,0.126
ATTATAT,-0.172,-0.00669,0.128,-0.836,0.0814,-0.465,-3.18,0.18,0.0608,0.113
CAGGGCT,-0.0397,-0.0627,-0.0359,0.145,0.1,0.093,-0.0826,0.0724,-0.045,-0.0195
TGTGTCC,-0.0028,-0.0632,0.257,0.431,-0.237,0.993,-0.0123,-0.172,-0.0182,-0.0547
CGGGCCA,-0.00939,0.0746,0.654,1.39,-0.0271,1.72,0.117,0.0176,-0.00477,0.132
TAAGTTG,0.168,0.00462,0.198,0.694,0.109,0.778,0.147,0.0491,-0.0806,0.00676
ATTACAC,0.048,0.00648,-0.0809,-1.88,-0.0822,-0.756,-0.00599,-0.072,-0.0444,0.00615
AGACCTT,0.149,0.207,0.748,1.39,0.105,2.13,0.108,-0.0641,0.171,0.337
GCCATTC,-0.0216,0.024,-0.18,0.351,-0.00897,-0.412,0.0982,-0.0035,0.0443,0.0191
ACGATGA,-0.0442,-0.0101,-0.0118,0.24,-0.0215,-0.34,0.0577,0.17,-0.0209,0.000669
AGTTGCC,0.0664,0.00896,-0.596,-0.424,0.204,-1.12,0.184,-0.0335,0.141,-0.0539
TCGACTT,0.137,0.0343,0.129,0.663,-0.0201,1.72,-0.0532,-0.0361,0.183,0.21
CCTAGGT,0.0105,-0.0396,0.313,0.978,0.0165,1.15,0.0192,0.0974,-0.125,-0.118
CGGGGAA,0.202,0.0741,0.74,1.38,0.105,2.05,0.201,-0.113,0.0245,0.209
TGCGATG,-0.106,-0.044,-0.124,0.582,0.0218,1.59,-0.0309,0.0132,-0.0402,0.0901
TAGGGAC,0.0751,0.105,0.882,2,0.0708,2.18,0.323,0.0952,0.118,0.188
TGCGGAG,0.0451,-0.0363,-0.301,-0.325,-0.0922,-0.681,0.0273,0.0115,0.00885,-0.0673
GTCTGCC,0.0307,0.0866,0.172,0.58,0.0263,0.678,0.0606,0.0098,0.068,-0.0919
CGATTAA,-0.0215,-0.0428,-0.141,-0.32,-0.0736,-0.446,-0.0337,-0.0832,-0.174,-0.0476
ACATTGT,-0.00359,0.0575,-0.654,-0.879,0.093,-1.18,-0.0327,-0.0684,0.0504,-0.118
GCTATAT,0.112,-0.042,0.254,0.27,0.0926,0.321,-0.122,0.136,0.048,0.112
GCTTCAA,0.131,0.0745,0.183,0.54,0.092,0.452,0.097,0.057,0.059,0.109
TCGCTGC,0.0196,-0.137,0.0408,0.0436,0.153,-0.188,-0.0309,-0.0765,-0.0696,-0.151
CGCTGCA,-0.0458,-0.0063,-0.259,-0.326,0.0902,-0.545,0.0212,0.0424,0.0604,0.00608
AGCGGCT,-0.0199,0.0447,0.126,0.553,-0.0249,1.66,0.129,0.0957,0.0629,0.19
AGCCAAT,0.04,0.0746,0.143,0.298,0.035,0.303,-0.087,0.102,0.171,0.141
CTAGGCT,0.0556,-0.00242,-0.0576,-0.379,-0.019,-0.168,-0.0313,-0.00965,0.0281,-0.0352
ACCCCAC,0.0371,-0.0665,-0.244,-0.444,-0.0492,-0.71,-0.043,-0.00179,-0.104,-0.0554
